# Assay results from patent US20180185408A1, “ANTIFUNGAL NYLON-3 POLYMERS AND COMBINATION THERAPY USING THEM TO TREAT FUNGAL INFECTIONS” (priority 2016, published 2018).
# Values joined by “and” are separate entries in the source; they are usually repeats but may differ in a detail not shown here. Equal entries are not always repeated. Where two headings read alike, the source gives them in different places.
# Legend:
# [1] = test system: Candida albicans; assay: Checkerboard microdilution synergy (FIC); type: cell-based
# [2] = test system: Aspergillus fumigatus; assay: Checkerboard microdilution synergy (FIC); type: cell-based; settings: for MIC: Aspergillus fumigatus; for MIC / MIC azole alone: 48 h, 35° C.; for FICazole / MIC azole in combination: […] 10^5 cells/mL
compound,measurement,setting,value
"OC(Cn1cncn1)(Cn1cncn1)c1ccc(F)cc1F [FLC, fluconazole]",MIC azole in combination,[1],<0.3 µg/mL
same,MIC azole in combination,"[1]; MM:TM (40:60) with Fluconazole, isolate K1 (Fluconazole Resistant), […]10^5 cells/mL, 30° C.",0.4 µg/mL
same,MIC azole in combination,"[1]; NM20 with Fluconazole, C. albicans K1, […] 10^5 cells/mL",0.4 µg/mL
same,MIC azole in combination,"[1]; NM20 with Fluconazole, C. albicans SC5314, […] 10^5 cells/mL",0.4 µg/mL
same,MIC azole in combination,"[1]; Table 43, MM:TM with Fluconazole, isolate K1, […] 10^5 cells/mL",0.4 µg/mL
same,MIC azole in combination,"[1]; Table 43, MM:TM with Fluconazole, isolate SC5314, […] 10^5 cells/mL",<0.3 µg/mL
"CCC(C)n1ncn(-c2ccc(N3CCN(c4ccc(OCC5COC(Cn6cncn6)(c6ccc(Cl)cc6Cl)O5)cc4)CC3)cc2)c1=O (centres unmarked) [Itraconazole, itraconazole]",MIC,"[2]; read-out: MIC azole alone, MM:TM with ITRA, isolate 08-12-12-13 Cyp51 [TR34/L98H], Avg., 48 hours",76.5 µM
same,MIC,"[2]; read-out: MIC azole alone, MM:TM with ITRA, isolate 08-19-02-61 Cyp51 [TR34/L98H], Avg., 48 hours",> 68 µM
same,MIC,"[2]; read-out: MIC azole alone, MM:TM with ITRA, isolate 08-31-08-91 Cyp51 [TR34/L98H], Avg., 48 hours",> 68 µM
same,MIC,"[2]; read-out: MIC azole alone, MM:TM with ITRA, isolate 08-36-03-25 Cyp51 [TR34/L98H], Avg., 48 hours",> 68 µM
same,MIC,"[2]; read-out: MIC azole alone, MM:TM with ITRA, isolate 12-7505220 Cyp51 [TR34/L98H], Avg, 48 hours",76.5 µM
same,MIC,"[2]; read-out: MIC azole alone, MM:TM with ITRA, isolate 12-7505446 Cyp51 [TR34/L98H], Avg., 48 hours",19.1 µM
same,MIC,"[2]; read-out: MIC azole alone, MM:TM with ITRA, isolate D5 Cyp51 [G54E], Avg., 48 hours",> 68 µM
same,MIC,"[2]; read-out: MIC azole alone, MM:TM with ITRA, isolate D9 Cyp51 [M220K], Avg., 48 hours",> 68 µM
same,MIC azole alone,"[2]; F11628, ITRA as single agent",>48 µg/mL and 72 µg/mL
same,MIC azole alone,"[2]; F16216, ITRA as single agent",>48 µg/mL and 64 µg/mL
same,FICazole,"[2]; MM:TM with Itraconazole, isolate AF293 (Senstitive)",0.200
same,FICazole,"[2]; MM:TM with Itraconazole, isolate CEA10 (Sensitive)",0.100
same,MIC azole in combination,"[2]; MM:TM with Itraconazole, isolate F11628 (Resistance)",0.4 µg/mL
same,MIC azole in combination,"[2]; MM:TM with Itraconazole, isolate F16216 (Resistance)",32 µg/mL
"CC[C@@H]([C@H](C)O)n1ncn(-c2ccc(N3CCN(c4ccc(OC[C@@H]5CO[C@@](Cn6cncn6)(c6ccc(F)cc6F)C5)cc4)CC3)cc2)c1=O [Posaconazole, posaconazole]",MIC,"[2]; read-out: MIC azole alone, CEA10, POS as single agent",1.07 µM
same,MIC azole alone,"[2]; F16216, POS as single agent, listed as POS",1.5 μg/mL and 2.14 μM
same,FICazole,"[2]; MM:TM with posaconazole, isolate AF293 (Senstitive)",0.500
same,MIC azole in combination,"[2]; MM:TM with posaconazole, isolate CEA10 (Sensitive)",0.1 µg/mL
same,MIC azole in combination,"[2]; MM:TM with posaconazole, isolate F11628 (Resistance)",0.1 µg/mL
same,MIC azole in combination,"[2]; MM:TM with posaconazole, isolate F16216 (Resistance)",1.0 µg/mL
